# The supplement of paper PMC8728848
# The list shows a part of the results.
# Assays:
# Assay in all cases: glycan array binding signal (z-score within array); higher = stronger binding
# Details in all cases: glycan notation: IUPAC condensed, linker removed; mutation: A146Q
# [1] = target: Kdn(a2-3)Gal(b1-4)[Fuc(a1-3)]GlcNAc
# Summary of the method: (§1)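 From the Consortium for Functional Glycomics database, 3228 arrays were curated, keeping only those whose protein sequence was available. Binding is given as a within-array Z-score averaged across arrays sharing a protein sequence and across linkers. Negative Z-scores can be read as non-binding.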
# [2] = target: Kdn(a2-6)Gal(b1-4)GlcNAc
# Summary of the method: as §1
# [3] = target: Man(a1-2)Man(a1-2)Man(a1-3)Man
# Summary of the method: as §1
# [4] = target: Man(a1-2)Man(a1-2)Man(a1-6)[Man(a1-3)]Man
# Summary of the method: as §1
# [5] = target: Man(a1-2)Man(a1-3)Man
# Summary of the method: as §1
# [6] = target: Man(a1-2)Man(a1-3)[Man(a1-2)Man(a1-6)]Man
# Summary of the method: as §1
# [7] = target: Man(a1-2)Man(a1-3)[Man(a1-2)Man(a1-6)]Man(a1-6)[Man(a1-2)Man(a1-2)Man(a1-3)]Man
# Summary of the method: as §1
# [8] = target: Man(a1-2)Man(a1-3)[Man(a1-2)Man(a1-6)]Man(a1-6)[Man(a1-2)Man(a1-2)Man(a1-3)]Man(b1-4)GlcNAc(b1-4)GlcNAc
# Summary of the method: as §1
# [9] = target: Man(a1-2)Man(a1-3)[Man(a1-6)]Man(a1-6)[Man(a1-2)Man(a1-3)]Man(b1-4)GlcNAc(b1-4)GlcNAc
# Summary of the method: as §1
# [10] = target: Man(a1-2)Man(a1-6)[Man(a1-3)]Man(a1-6)[Man(a1-2)Man(a1-2)Man(a1-3)]Man
# Summary of the method: as §1
# [11] = target: Man(a1-2)Man(a1-6)[Man(a1-3)]Man(a1-6)[Man(a1-2)Man(a1-2)Man(a1-3)]Man(b1-4)GlcNAc(b1-4)GlcNAc
# Summary of the method: as §1
# [12] = target: Man(a1-3)[Man(a1-6)]Man
# Summary of the method: as §1
# [13] = target: Man(a1-3)[Man(a1-6)]Man(a1-6)[Man(a1-2)Man(a1-3)]Man(b1-4)GlcNAc(b1-4)GlcNAc
# Summary of the method: as §1
# [14] = target: Man(a1-3)[Man(a1-6)]Man(a1-6)[Man(a1-3)]Man
# Summary of the method: as §1
# [15] = target: Man(a1-3)[Man(a1-6)]Man(a1-6)[Man(a1-3)]Man(b1-4)GlcNAc(b1-4)GlcNAc
# Summary of the method: as §1
# [16] = target: Man(a1-3)[Man(a1-6)]Man(b1-4)GlcNAc(b1-4)GlcNAc
# Summary of the method: as §1
# [17] = target: Man(a1-6)Man
# Summary of the method: as §1
# [18] = target: Man(b1-4)GlcNAc
# Summary of the method: as §1
# [19] = target: Neu5Ac(a2-3)Gal
# Summary of the method: as §1
# [20] = target: Neu5Ac(a2-3)Gal(b1-3)GalNAc
# Summary of the method: as §1
# [21] = target: Neu5Ac(a2-3)Gal(b1-3)GalNAc(b1-3)Gal(a1-4)Gal(b1-4)Glc
# Summary of the method: as §1
# [22] = target: Neu5Ac(a2-3)Gal(b1-3)GalNAc(b1-4)[Neu5Ac(a2-3)]Gal(b1-4)Glc
# Summary of the method: as §1
# [23] = target: Neu5Ac(a2-3)Gal(b1-3)GalNAc6S
# Summary of the method: as §1
# [24] = target: Neu5Ac(a2-3)Gal(b1-3)GlcNAc
# Summary of the method: as §1
# [25] = target: Neu5Ac(a2-3)Gal(b1-3)GlcNAc(b1-2)Man(a1-3)[Neu5Ac(a2-3)Gal(b1-3)GlcNAc(b1-2)Man(a1-6)]Man(b1-4)GlcNAc(b1-4)GlcNAc
# Summary of the method: as §1
# [26] = target: Neu5Ac(a2-3)Gal(b1-3)GlcNAc(b1-3)Gal(b1-3)GlcNAc
# Summary of the method: as §1
# [27] = target: Neu5Ac(a2-3)Gal(b1-3)GlcNAc(b1-3)Gal(b1-4)GlcNAc
# Summary of the method: as §1
# [28] = target: Neu5Ac(a2-3)Gal(b1-3)GlcNAc(b1-3)GalNAc
# Summary of the method: as §1
# [29] = target: Neu5Ac(a2-3)Gal(b1-3)GlcNAc6S
# Summary of the method: as §1
# [30] = target: Neu5Ac(a2-3)Gal(b1-3)[Fuc(a1-4)]GlcNAc
# Summary of the method: as §1
# [31] = target: Neu5Ac(a2-3)Gal(b1-3)[Fuc(a1-4)]GlcNAc(b1-3)Gal(b1-3)[Fuc(a1-4)]GlcNAc
# Summary of the method: as §1
# [32] = target: Neu5Ac(a2-3)Gal(b1-3)[Fuc(a1-4)]GlcNAc(b1-3)Gal(b1-4)[Fuc(a1-3)]GlcNAc
# Summary of the method: as §1
# [33] = target: Neu5Ac(a2-3)Gal(b1-3)[Neu5Ac(a2-3)Gal(b1-4)]GlcNAc
# Summary of the method: as §1
# [34] = target: Neu5Ac(a2-3)Gal(b1-3)[Neu5Ac(a2-6)]GalNAc
# Summary of the method: as §1
# [35] = target: Neu5Ac(a2-3)Gal(b1-4)Glc
# Summary of the method: as §1
binder,measurement,setting,value
"Gal 3 (Homo sapiens), P17931 (protein) MADNFSLHDALSGSGNPNPQGWPGAWGNQPAGAGGYPGASYPGAYPGQAPPGAYPGQAPPGAYHGAPGAYPGAPAPGVYPGPPSGPGAYPSSGQPSAPGAYPATGPYGAPAGPLIVPYNLPLPGGVVPRMLITILGTVKPNANRIQLDFQRGNDVAFHFNPRFNENNRRVIVCNTKLDNNWGREERQSVFPFESGKPFKIQVLVEPDHFKVAVNDAHLLQYNHRVKKLNEISKLGISGDIDLTSASYTMI",glycan array binding signal (z-score),[1],-0.201
same,glycan array binding signal (z-score),[2],-0.2
same,glycan array binding signal (z-score),[3],-0.186
same,glycan array binding signal (z-score),[4],-0.177
same,glycan array binding signal (z-score),[5],-0.199
same,glycan array binding signal (z-score),[6],-0.192
same,glycan array binding signal (z-score),[7],-0.196
same,glycan array binding signal (z-score),[8],-0.15
same,glycan array binding signal (z-score),[9],-0.176
same,glycan array binding signal (z-score),[10],-0.183
same,glycan array binding signal (z-score),[11],-0.202
same,glycan array binding signal (z-score),[12],-0.181
same,glycan array binding signal (z-score),[13],-0.202
same,glycan array binding signal (z-score),[14],-0.203
same,glycan array binding signal (z-score),[15],-0.189
same,glycan array binding signal (z-score),[16],-0.201
same,glycan array binding signal (z-score),[17],-0.153
same,glycan array binding signal (z-score),[18],-0.2
same,glycan array binding signal (z-score),[19],-0.197
same,glycan array binding signal (z-score),[20],-0.198
same,glycan array binding signal (z-score),[21],-0.179
same,glycan array binding signal (z-score),[22],-0.201
same,glycan array binding signal (z-score),[23],-0.192
same,glycan array binding signal (z-score),[24],-0.194
same,glycan array binding signal (z-score),[25],-0.122
same,glycan array binding signal (z-score),[26],-0.104
same,glycan array binding signal (z-score),[27],-0.074
same,glycan array binding signal (z-score),[28],-0.186
same,glycan array binding signal (z-score),[29],-0.2
same,glycan array binding signal (z-score),[30],-0.123
same,glycan array binding signal (z-score),[31],-0.195
same,glycan array binding signal (z-score),[32],-0.2
same,glycan array binding signal (z-score),[33],-0.18
same,glycan array binding signal (z-score),[34],-0.2
same,glycan array binding signal (z-score),[35],-0.163
